# Data taken from PubChem BioAssay AID1347165 (National Center for Advancing Translational Sciences (NCATS), 2019).
# The whole screen tested about 220,000 compounds, of which about 5,700 (2.6%) were called active. This list was built around the results that the source calls inconclusive (neither active nor inactive); the mix of calls is not that of the screen. The call rests on the fitted dose curve; in most records, active means well fitted inhibition curve with a large enough effect; inconclusive means small, poorly fitted or top-dose-only effect; inactive means no such curve, though single readings can be large or run the other way. Where the call is inconclusive, the potency comes from a doubtful curve fit.
# Molecular target: Lysine-specific demethylase 5B (Homo sapiens) (UniProt Q9UGL1)
# Test: Primary screen for KDM5B Histone Demethylases FDH-coupled qHTS; further: nearly all actives have a fitted effect of over 70% in size
# Details: FDH-coupled NADH fluorescence (FDH is formaldehyde dehydrogenase); series mostly up to 57.7 µM
# Outline: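 qHTS format, multiple compound concentrations. Buffer 50 mM HEPES pH 7.5/0.01% Tween-20; 200 nM KDM5BΔAP final; 10 min compound preincubation; substrate-mix levels 12.5 µM peptide, 25 µM α-KG, 0.25 mM NAD⁺; 30 min RT; ΔRFU.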
# Potency means the concentration at half of the fitted maximal effect; tags describe the fitted curve by direction and shape.
# Sequence of UniProt Q9UGL1 (Q9UGL1 whole entry, looked up): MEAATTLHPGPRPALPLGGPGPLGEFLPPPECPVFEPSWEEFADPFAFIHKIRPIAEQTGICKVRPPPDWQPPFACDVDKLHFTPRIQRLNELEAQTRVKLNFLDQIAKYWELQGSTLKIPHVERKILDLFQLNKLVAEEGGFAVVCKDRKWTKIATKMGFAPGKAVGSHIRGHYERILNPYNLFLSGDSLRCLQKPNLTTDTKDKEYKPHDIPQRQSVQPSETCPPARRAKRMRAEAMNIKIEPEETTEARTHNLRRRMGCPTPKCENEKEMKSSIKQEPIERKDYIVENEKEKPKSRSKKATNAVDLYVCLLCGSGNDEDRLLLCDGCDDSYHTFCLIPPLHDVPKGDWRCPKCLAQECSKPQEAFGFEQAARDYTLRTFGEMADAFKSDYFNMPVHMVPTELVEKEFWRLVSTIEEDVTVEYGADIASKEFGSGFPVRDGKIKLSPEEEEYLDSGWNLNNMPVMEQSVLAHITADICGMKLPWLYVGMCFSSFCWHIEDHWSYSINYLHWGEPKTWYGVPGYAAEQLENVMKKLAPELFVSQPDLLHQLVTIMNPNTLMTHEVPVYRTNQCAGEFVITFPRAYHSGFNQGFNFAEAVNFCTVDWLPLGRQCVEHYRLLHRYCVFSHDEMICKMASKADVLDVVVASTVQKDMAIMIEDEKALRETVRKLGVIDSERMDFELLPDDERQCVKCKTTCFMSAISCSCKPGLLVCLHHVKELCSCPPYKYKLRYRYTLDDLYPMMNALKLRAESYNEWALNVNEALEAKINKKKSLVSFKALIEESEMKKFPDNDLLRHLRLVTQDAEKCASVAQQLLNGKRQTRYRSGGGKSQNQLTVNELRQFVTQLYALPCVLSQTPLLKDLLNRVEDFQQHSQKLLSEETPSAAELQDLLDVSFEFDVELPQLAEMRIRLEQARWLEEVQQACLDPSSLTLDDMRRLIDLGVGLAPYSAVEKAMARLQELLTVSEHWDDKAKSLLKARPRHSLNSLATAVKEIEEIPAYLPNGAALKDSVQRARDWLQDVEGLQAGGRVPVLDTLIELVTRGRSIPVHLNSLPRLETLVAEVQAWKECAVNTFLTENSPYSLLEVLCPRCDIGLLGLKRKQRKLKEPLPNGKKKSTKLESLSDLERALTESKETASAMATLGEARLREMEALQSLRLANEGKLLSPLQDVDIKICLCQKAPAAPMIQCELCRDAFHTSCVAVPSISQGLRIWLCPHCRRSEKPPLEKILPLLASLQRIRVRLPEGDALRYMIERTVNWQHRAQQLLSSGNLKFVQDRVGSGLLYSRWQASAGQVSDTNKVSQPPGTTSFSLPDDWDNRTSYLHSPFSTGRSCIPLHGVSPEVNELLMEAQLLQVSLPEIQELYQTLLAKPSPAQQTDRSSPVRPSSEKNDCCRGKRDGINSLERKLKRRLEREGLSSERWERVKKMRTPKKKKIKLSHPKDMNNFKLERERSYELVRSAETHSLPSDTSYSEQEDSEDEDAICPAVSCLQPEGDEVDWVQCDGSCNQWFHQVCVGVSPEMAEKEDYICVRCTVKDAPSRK
row,Compound,Potency
1,COc1ccc(Cn2ccc3nc(C)c(C(=O)NCc4ccc(C)cc4)cc3c2=O)cc1,"inconclusive: 35.5 µM [inhibitor, partial curve, poor fit]"
2,CC1(C)CC(=O)c2cc(-c3nc(-c4ccc(Cl)cc4)cs3)c(=O)n(-c3ccc(F)cc3)c2C1,"inconclusive: 11.2 µM [inhibitor, partial curve, poor fit]"
3,O[C@@H]1C[C@@H](c2nc(-c3cccnc3)no2)N(Cc2cccs2)C1,"inconclusive: 39.8 µM [inhibitor, partial curve, poor fit]"
4,CN(C)S(=O)(=O)c1ccc2oc(SCCOc3ccccc3F)nc2c1,inactive
5,N#Cc1c(N2CCN(CC(=O)Nc3ccc(Cl)cc3)CC2)nc(-c2ccco2)c2c1CCC2,inactive
6,Cc1ccc(C)c(N2CCN(C(=O)CCn3c(=O)[nH]c4ccccc4c3=O)CC2)c1,"inconclusive: 17.8 µM [inhibitor, partial curve, poor fit]"
7,O[C@@H]1C[C@@H](c2nc(Cc3ccc(F)cc3Cl)no2)N(Cc2ncc[nH]2)C1,"inconclusive: 35.5 µM [inhibitor, partial curve, poor fit]"
8,CC(C)(C)OC(=O)N1CC(Nc2cccc(Oc3ccccc3)c2)C1,"inconclusive: 89.1 µM [inhibitor, partial curve]"
9,CCCCn1c(=O)[nH]c(=O)c2c1nc(CCc1ccccc1)c(=O)n2C,"inconclusive: 20 µM [inhibitor, partial curve, poor fit]"
10,COc1cc(-n2cnnn2)cc(-n2ccnc2-c2cc3n(n2)CCCNC3)c1,"inconclusive: 8.91 µM [inhibitor, partial curve]"
11,O=C1CC2(CCN(C(=O)c3ccc(Cl)cc3)CC2)Oc2ccccc21,"inconclusive: 56.2 µM [inhibitor, partial curve, poor fit]"
12,COC(=O)c1ccc(C(=O)Nc2ccc(-c3nc4cc(NC(=O)c5ccc(C(=O)OC)cc5)ccc4o3)cc2)cc1,"inconclusive: 2.82 µM [inhibitor, full curve, poor fit]"
13,CC(C)CC(NC(N)=O)C(=O)NCCc1ccc(C(F)(F)F)cc1 (stereo not drawn),inactive
14,Cc1cccc(CSc2nc3cccnc3n2Cc2ccc(C(=O)NCc3ccco3)cc2)c1,"inconclusive: 28.2 µM [inhibitor, partial curve, poor fit]"
15,Nc1cc(C(=O)OCC(=O)NCCNC(=O)COC(=O)c2ccc(Cl)c(N)c2)ccc1Cl,"inconclusive: 25.1 µM [inhibitor, single point]"
16,Cc1ccc(S(=O)(=O)N2CCCN(C)c3ccccc32)cc1C,"inconclusive: 31.6 µM [inhibitor, partial curve, poor fit]"
17,COCC1CN(C)CC12CCN(Cc1ccc(C)o1)CC2 (stereo not drawn),"inconclusive: 39.8 µM [inhibitor, partial curve, poor fit]"
18,COc1cccc(C(=O)Nc2ccc3oc(-c4cccc(Cl)c4)nc3c2)c1,"inconclusive: 11.2 µM [inhibitor, partial curve, poor fit]"
19,O=Cc1cc2cc(Br)ccc2[nH]1,"inconclusive: 22.4 µM [inhibitor, partial curve, poor fit]"

row,Compound,Potency
1,COCCNc1nc(-c2ccccc2)c2cc(Br)ccc2n1,"inconclusive: 35.5 µM [inhibitor, single point]"
2,CCN(Cc1nc(-c2ccccc2)no1)C(=O)Nc1ccccc1OC,inactive
3,CCN(CC)C(=O)CSc1nnc(-c2ccc(S(=O)(=O)N3CCOCC3)cc2)n1C,"inconclusive: 22.4 µM [inhibitor, partial curve, poor fit]"
4,COc1ccc(-c2c(C)c3cc(OS(=O)(=O)c4ccccc4)ccc3oc2=O)cc1,inactive
5,Cc1ccccc1C(=O)N1C(C(=O)N2CCCC2)COC12CCN(C(=O)Cc1ccccc1)CC2 (stereo not drawn),inactive
6,Cc1cccc(C)c1OCCn1c(C2CC(=O)N(Cc3ccc(F)cc3)C2)nc2ccccc21 (stereo not drawn),"inconclusive: 39.8 µM [inhibitor, single point]"
7,O=C(O)/C=C/c1ccc(-c2ccc(Br)cc2Cl)o1,"inconclusive: 39.8 µM [inhibitor, single point]"
8,COc1ccccc1Oc1c(C)oc2c(CN3CCOCC3)c(O)ccc2c1=O,"inconclusive: 22.4 µM [inhibitor, partial curve, poor fit]"
9,COc1cccc(-c2cc3c(=O)n(CCNC(=O)COc4ccccc4)ccn3n2)c1,"inconclusive: 20 µM [inhibitor, single point]"
10,Cc1ccc(-n2nc(C)c3c(C(=O)O)cc(C)nc32)cc1,"inconclusive: 28.2 µM [inhibitor, partial curve, poor fit]"
11,CCC(CC)NCc1cccc(Oc2ccccc2)c1,"inconclusive: 20 µM [inhibitor, partial curve, poor fit]"
12,Cc1nc2cc(NC(C)C(=O)Nc3ccccc3F)ccc2o1 (stereo not drawn),"inconclusive: 39.8 µM [inhibitor, single point]"
13,CCN(C(=O)Cc1nc(-c2cccs2)oc1C)c1ccc(F)cc1,"inconclusive: 22.4 µM [inhibitor, partial curve, poor fit]"
14,Cc1ccc(Cc2c(C)nc3c(-c4ccccc4)c(C)[nH]n3c2=O)cc1,"inconclusive: 14.1 µM [inhibitor, partial curve, poor fit]"
15,CN1c2cc(C(=O)NC3CCCCCC3)ccc2C(=O)N2CCCCC21 (stereo not drawn),"inconclusive: 28.2 µM [inhibitor, partial curve, poor fit]"
16,CSc1ccc(-c2nc3cnccn3c2Nc2ccc3c(c2)OCCO3)cc1,"inconclusive: 39.8 µM [inhibitor, single point]"
17,COc1ccc(C2C=C(c3ccc(F)cc3)Nc3nnnn32)cc1OCc1ccccc1 (stereo not drawn),"inconclusive: 25.1 µM [inhibitor, partial curve, poor fit]"
18,Cc1cccc(OCC(=O)NCc2nnc3c(-c4nc(C)no4)cccn23)c1,"inconclusive: 28.2 µM [inhibitor, partial curve, poor fit]"
19,COc1ccc(-c2cc(-c3ccccc3)nc(NC(=O)CN3CCCCCC3)n2)cc1,"inconclusive: 2 µM [inhibitor, full curve, poor fit]"
